# Read counts are not given, so values of variants with three or more changes are uncertain.
# B1: OR4K15 (parent)
# chain: GUUAACGGUCAUAGGCCAUGGAAACUAGGAGCACCAUUUCGCUGCCAGUGAAGAAAUGAACAAAGAAAAUCUGGGCCAGGCAGGCAUCAAAAGAAAUAGUCUUGCGCUCAACCAGAAAGUCUGUAAUCAUUUUAAGGGUA
# Variants of: B1
# Assay: self-cleavage, relative activity (ratio to wild type); higher = more cleavage; in vitro, sequencing; the parent is a self-cleaving ribozyme
row,Variant,self-cleavage
1,G7A A54G A64U U122A,0.28
2,G7A A55G A86G U87A A96G U103C,0.75
3,G7A A59G A69C A96G,0.35
4,G7A A60U U127C U131C,1.63
5,G7A A62G U127C,1.55
6,G7A A67C U130C,1.82
7,G7A A67G A116G,1.08
8,G7A A69G C77U A91G,1.9
9,G7A A78U U87G A114G G136A,0.08
10,G7A A92U A94G U100C U122A,2.77
11,G7A C76U U102C,0.11
12,G7A C81U A86U U103C A117G,0.19
13,G7A G14U A23G A114G,0.31
14,G7A G44A A59G U130C,0.98
15,G7A G44A A78U C112U A140U,0.01
16,G7A G74C G136A,0.37
17,G7A U9C C85U,1.41
18,G7A U12A A69C A90G,1
19,G7A U38C A82U A126G U139C,0.13
20,G7A U38C U97C,1.41
21,G7A U39C A64G U127C,1.32
22,G7A U43A A59G A67G,1.63
23,G7A U43C A92G U97C,1.09
24,G7A U57G U132C,1.46

row,Variant,self-cleavage
1,G7A U87C A96G,2.05
2,G7A U102C C105U,0.8
3,G7A U130A U131C,1.14
4,G7C U37C U132C,2.21
5,G7U A11G A95G,1.76
6,G7U A18C A24G U37C U38C G58U U122G,1.23
7,G7U A22G U37C A54G U108C U132C,0.02
8,G7U A30G A68G,1.71
9,G7U A30G U37C A89G,0.82
10,G7U A30G U39C A55G A69G A89G,0.44
11,G7U A33G U43C A135G,0.66
12,G7U A36G U49A A64G U127C,0.22
13,G7U A47U A91G,0.81
14,G7U A66G A114G,0.35
15,G7U A67G A82U,0.34
16,G7U A68G U72C,0.26
17,G7U A118U A126G,0.24
18,G7U C34U C40U A67C U124C,1.71
19,G7U C35U A60G U127G,0.68
20,G7U U9A A24G,1.59
21,G7U U12C U43A,1.47
22,G7U U38C U39A A54G,1.91
23,G7U U43C A82U U108A A135U,0.01
24,G7U U70C C76U A90G,0.27

row,Variant,self-cleavage
1,G8A A11U U70C,0.18
2,G8A A22G U37C G41U A69G A95G,1.22
3,G8A A23G A67G U124C,1.08
4,G8A A24G A64G A126G,1.05
5,G8A A27C A67G,1.2
6,G8A A27G A30U A89U,1.18
7,G8A A51G U130C,1.24
8,G8A A52G U120C U130C,0.73
9,G8A A52G U132A,0.83
10,G8A A59G A114G,0.18
11,G8A A62G A116G,0.91
12,G8A A64G A78G U130C U132C,0.34
13,G8A A64G G79A A116G,0.03
14,G8A A86G A125U U127C,0.17
15,G8A A90G A96G A129G,0.59
16,G8A C25U A56G A96G,2.22
17,G8A U12A A13G U97C,1.61
18,G8A U19A U87A,2.97
19,G8A U37C G74C A78C C128U,0.16
20,G8A U39A A67G,1.26
21,G8A U43A A54G A64G G80A A135G,0.4
22,G8C A30G A52G A90G A92G U122C,0.7
23,G8C A47G U102C,2.36
24,G8C A82G U102C U108C,0.1

row,Variant,self-cleavage
1,G8C U19A A56G,1.63
2,G8C U43C C71G A91G,0.59
3,G8U A11U A23G G115U A125U U131C,0.08
4,G8U A22G G80A A91G,0.25
5,G8U A60U U72A,0.46
6,G8U U38A U39A A134G,1.65
7,G8U U49C A118G,1.47
8,U9A A11U U43A A135C,0.83
9,U9A A18G U100C U108C U139C,0.01
10,U9A A18U A33G U57G G83A A89G A91G U122C,0.75
11,U9A A18U U70A A116G A117G,0.05
12,U9A A22C A27C A62G,0.96
13,U9A A22G A67G A135U U139C,1.73
14,U9A A22G A67U U70A A135G,1.05
15,U9A A22G A68G,0.85
16,U9A A22G A111G U120A U122C U139C,0.01
17,U9A A22G U57A A91G C121U,1.45
18,U9A A23G A24G A47G A82U,0.32
19,U9A A23G U38A A95G,1.34
20,U9A A23G U43A U103C G106U,0.06
21,U9A A24G C40U G58A A67U,1.38
22,U9A A30G A47C A66G A117G,1.24
23,U9A A30G G106U A116G,0.03
24,U9A A30G U49C A55G A129G,0.8

row,Variant,self-cleavage
1,U9A A30U U87A U122C,1.08
2,U9A A33G A110C,0.11
3,U9A A33U U100C U103C,1.39
4,U9A A36G A63U C88U,0.74
5,U9A A36G U43C U72C A117U A118G,0.28
6,U9A A47G U108C,0.01
7,U9A A47U A51G A67U U97C,0.29
8,U9A A51C C85U U120C,0.5
9,U9A A51G G53A U57A,1.18
10,U9A A54G A68U,1.27
11,U9A A56G A69G A82G,0.43
12,U9A A59G A91G,0.68
13,U9A A60G A82C U133C,0.18
14,U9A A60G A95U,1.31
15,U9A A63C A68G A91G U97C U122A,0.08
16,U9A A63G C128A,1.14
17,U9A A63G U87C A140U,0.92
18,U9A A66G U97C U127C,0.9
19,U9A A68G A92G,0.89
20,U9A A90U A118G,0.94
21,U9A A96G U130C,1.04
22,U9A C32A A55G A68C A90G A95G A110G G115A,0.01
23,U9A C40A A56G A62G,1.04
24,U9A C40A U120C,0.27

row,Variant,self-cleavage
1,U9A C109A U122C,0.27
2,U9A U12A A56G A59G U70C A95G,0.3
3,U9A U12A U39A A62G,0.91
4,U9A U12C A55G A62U A114G,0.11
5,U9A U19A U70C U97A A114U,0.05
6,U9A U37C U130C,0.6
7,U9A U38C A52G,0.91
8,U9A U38C U39A C42U A90G G106C,0.04
9,U9A U39A A51G A60G A66G,0.6
10,U9A U39C A52G A78U U103C,0.23
11,U9A U43G A66G A90G,1.24
12,U9A U49C A63G G83A U130C,1.75
13,U9A U49C A89G,1.01
14,U9A U49C C76U U102C,0.05
15,U9A U49G A96G A117U,1.22
16,U9A U70A U72G,0.42
17,U9A U70C A95G,1.25
18,U9A U70G A91G A110G,0.03
19,U9A U87C A126G,0.89
20,U9A U108C U120C,0
21,U9C A11G A56G A66G A69G G80A,0.14
22,U9C A11G A92G A95G C107U A126G U132C,0
23,U9C A11G A96G,0.7
24,U9C A11G G74A U133C,0.38

row,Variant,self-cleavage
1,U9C A11U U38C,1.37
2,U9C A11U U57C A118G,1.03
3,U9C A13G A22G U102A,0.47
4,U9C A13G A24G A56G A67G A135G,0.75
5,U9C A13G A68G A92G,0.75
6,U9C A13G U19A A67G,1.16
7,U9C A13G U19C A62G C88U,1.3
8,U9C A13U A23G A67G U100C,1.16
9,U9C A13U A23G U122C,2.01
10,U9C A13U A55U A86U,0.48
11,U9C A18G A23G,1.65
12,U9C A18G A116G,0.78
13,U9C A18G U37C A62U U97A A129G,1.69
14,U9C A22G U37C U49A A55G,0.69
15,U9C A22G U43A A117G U122C,1.27
16,U9C A22G U43C A60G A64G U70A A96U,1.05
17,U9C A22G U87C,1.2
18,U9C A22U A23G A94G A126U U131C,0.84
19,U9C A22U A67G U72C A82G,0.33
20,U9C A22U G31C A51G U122A,2.17
21,U9C A23G A51G U70C,1.55
22,U9C A23G A52G A90G U103A,0.23
23,U9C A23G A91G,1.18

# Source: the RNAGym collection of RNA variant scans (doi:10.7554/elife.90254)
